In PubChem BioAssay AID1159614 (National Center for Advancing Translational Sciences (NCATS), 2016):
The whole screen tested about 45,000 compounds, of which about 65 (0.1%) were called active. Calls follow the shape of the dose curve; as a rule, active = well fitted activation curve with a large enough effect; inconclusive = small, poorly fitted or top-dose-only effect; inactive = no such curve, though single readings can be large or run the other way. The list shows a part of the results.

target: Galactocerebrosidase (Homo sapiens) (UniProt P54803); assay: A Novel Cell-Based Assay to Identify Small Molecules for B -Galactocerebrosidase; conditions: 145M-Twi-hGALC-G270D cells (Twitcher mouse brain line with human GALC G270D), HMU-beta-Gal fluorescence, 48 h; series mostly up to 57.5 µM; activation: at the top concentration; also: 0% is about no effect; nearly all actives have a fitted effect of over 65% in size
Sequence of UniProt P54803 (P54803 whole entry, looked up): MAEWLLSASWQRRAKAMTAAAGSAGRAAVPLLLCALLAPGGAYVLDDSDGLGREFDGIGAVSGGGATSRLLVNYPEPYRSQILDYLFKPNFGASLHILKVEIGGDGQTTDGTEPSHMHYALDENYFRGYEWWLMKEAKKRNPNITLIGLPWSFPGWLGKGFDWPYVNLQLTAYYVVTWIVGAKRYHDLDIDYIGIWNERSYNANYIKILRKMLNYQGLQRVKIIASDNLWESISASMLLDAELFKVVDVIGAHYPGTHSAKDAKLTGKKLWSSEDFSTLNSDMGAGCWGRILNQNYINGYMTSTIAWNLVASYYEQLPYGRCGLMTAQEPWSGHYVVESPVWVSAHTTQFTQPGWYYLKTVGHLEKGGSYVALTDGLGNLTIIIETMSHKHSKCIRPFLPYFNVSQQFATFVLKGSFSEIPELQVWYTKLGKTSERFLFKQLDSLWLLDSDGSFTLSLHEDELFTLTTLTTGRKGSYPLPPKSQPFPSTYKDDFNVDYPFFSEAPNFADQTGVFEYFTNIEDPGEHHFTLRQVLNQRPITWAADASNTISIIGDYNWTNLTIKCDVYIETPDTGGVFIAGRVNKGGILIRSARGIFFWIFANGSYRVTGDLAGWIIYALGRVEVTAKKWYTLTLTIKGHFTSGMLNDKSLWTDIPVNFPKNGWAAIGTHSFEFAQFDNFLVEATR
Summary of the method: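 Brain-derived Twitcher mouse 145M-Twi cells stably expressing human GALC-G270D or wild-type GALC, treated live, then residual GALC activity read by fluorescence of HMU-b-Gal substrate (0.1 mM final) in citrate-phosphate buffer pH 5.2 with sodium taurocholate. Signal increase indicates enhancement.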

activation, inactive:
Nc1nonc1C(=O)NCCNCc1ccccc1F -8.63%
O=C(COCc1cc(-c2ccc(F)cc2)on1)Nc1cc(Cl)ccc1O -17.9%
CC(=O)C1=C(c2ccc(Cl)c(Cl)c2)N(C(C)=O)n2c(nnc2-c2ccccc2)S1 -10.4%
COc1ccc(CCNC(=O)CCCn2c(=O)c3ccccc3n(Cc3ccccc3C#N)c2=O)cc1OC -13.9%
Cc1ccccc1-n1nc(CO)c(C(=O)NCC(c2ccccc2)c2ccccc2)n1 -7.89%
CCOC(=O)c1c(NC(=O)/C=C/c2ccc(C)cc2)sc(C(C)=O)c1C -9.03%
CC1(C)[C@H](C(=O)O)N2C(=O)C[C@H]2S1(=O)=O -8.45%
CC(=O)Nc1nonc1-c1nnc(SCC(=O)Nc2cc(Cl)ccc2C)n1C -35.7%
COc1cc(C(CC(=O)Nc2cccc(C(C)=O)c2)N2Cc3ccccc3C2=O)cc(OC)c1OC (stereo not drawn) 7.68%
COc1cccc(C2C=C(c3ccccc3)Nc3c(C(=O)Nc4ccccc4)cnn32)c1OC (stereo not drawn) -3.58%
Cc1ccc(CSCCC(=O)N2CCN(c3ccc(F)cc3)CC2)cc1 -15%
COc1ccccc1CNC(=O)Cn1c(-c2ccc(F)cc2)cc(C(C)=O)c1C -13.5%
CCN(CC)CCN(C(=O)c1ccco1)c1nc2c(C)c(C)ccc2s1 10.4%
O=C(Cn1nc(Cc2ccncc2)c2ccccc2c1=O)Nc1cccc(C(F)(F)F)c1 -12.6%
CN(C(=O)c1c[nH]c2ccc(S(=O)(=O)Nc3cccc(C(F)(F)F)c3)cc2c1=O)C1CCCCC1 -13.3%
COc1ccc(N2CCN(C(=O)CN3CCSc4ccccc43)CC2)cc1 -21.3%
Cc1ccc(-c2cc(C(F)(F)F)n3nc(-c4cccc(Br)c4)cc3n2)cc1 -12.4%
CC(=O)Nc1ccc(NC(=O)CN2C(=O)CC(c3ccco3)Sc3ccccc32)cc1 (stereo not drawn) -6.93%
Cc1cccc(C)c1Nc1c(-c2ccc(N3CCOCC3)cc2)nc2ncccn12 -11.9%
O=C(NCCc1ccc(Cl)cc1)c1nnc(Cc2ccc(F)cc2)o1 -9.1%
O=C(CCSCc1ccc(Cl)cc1)NCCc1ccccc1 -10.6%
Cc1ccc(NC(=O)C2CCCN(c3ncnc4onc(C)c34)C2)c(Cl)c1 (stereo not drawn) -12.9%
CN(C)S(=O)(=O)c1ccc(C(=O)NCCSc2c(-c3ccc(Br)cc3)[nH]c3ccccc23)cc1 -9.85%
COc1ccccc1NC(=O)c1nn(C)c2c1CS(=O)(=O)c1ccccc1-2 -10.4%
CCCCNC(=O)CC1Nc2cc(C)c(C)cc2NC1=O (stereo not drawn) -12.2%
Cc1c(Cl)cccc1N1CCn2c1nc1c2c(=O)n(CC(=O)O)c(=O)n1C -16.3%
COc1ccc(Cl)cc1NC(=O)Nc1c[nH]c(=O)[nH]c1=O -12.3%
O=C(NCC(c1cccnc1)N1CCc2ccccc2C1)C(=O)Nc1ccccc1F (stereo not drawn) -19.5%
